Data: PMC6727365
These are yes or no findings as the source states them, for the method shown. In cells and extracts the contact can be indirect. Some results given as binding are weak or reduced against the parent protein; the word gives no strength. For part of these data: Tags and fused reporters may be left off the sequences shown.

Assays:
[1] = target: EPS8 (endogenous, SK-OV3 cells) (human (endogenous in SK-OV3)) (UniProt Q12929); assay: pull-down; competition: synthetic peptide (10 μM) added to LPA-stimulated SK-OV3 cell lysate 1 h before GST-ABI1 beads; the peptide meets the protein in the lysate; only the binder purified
[2] = target: SOS1 (endogenous, SK-OV3 cells) (human (endogenous in SK-OV3)) (UniProt Q07889); assay: as above
[3] = target: T1, Myc-tagged EPS8 (human), Q12929; assay: co-IP; OVCAR3 cells (no ABI1 expression) co-transfected with tagged constructs (HA-ABI1 or its regions, Flag-SOS1 or its region, Myc-EPS8 or its region); 12 h starvation, 20 μM LPA; lysates; settings: remark: other sources report otherwise
T1 chain: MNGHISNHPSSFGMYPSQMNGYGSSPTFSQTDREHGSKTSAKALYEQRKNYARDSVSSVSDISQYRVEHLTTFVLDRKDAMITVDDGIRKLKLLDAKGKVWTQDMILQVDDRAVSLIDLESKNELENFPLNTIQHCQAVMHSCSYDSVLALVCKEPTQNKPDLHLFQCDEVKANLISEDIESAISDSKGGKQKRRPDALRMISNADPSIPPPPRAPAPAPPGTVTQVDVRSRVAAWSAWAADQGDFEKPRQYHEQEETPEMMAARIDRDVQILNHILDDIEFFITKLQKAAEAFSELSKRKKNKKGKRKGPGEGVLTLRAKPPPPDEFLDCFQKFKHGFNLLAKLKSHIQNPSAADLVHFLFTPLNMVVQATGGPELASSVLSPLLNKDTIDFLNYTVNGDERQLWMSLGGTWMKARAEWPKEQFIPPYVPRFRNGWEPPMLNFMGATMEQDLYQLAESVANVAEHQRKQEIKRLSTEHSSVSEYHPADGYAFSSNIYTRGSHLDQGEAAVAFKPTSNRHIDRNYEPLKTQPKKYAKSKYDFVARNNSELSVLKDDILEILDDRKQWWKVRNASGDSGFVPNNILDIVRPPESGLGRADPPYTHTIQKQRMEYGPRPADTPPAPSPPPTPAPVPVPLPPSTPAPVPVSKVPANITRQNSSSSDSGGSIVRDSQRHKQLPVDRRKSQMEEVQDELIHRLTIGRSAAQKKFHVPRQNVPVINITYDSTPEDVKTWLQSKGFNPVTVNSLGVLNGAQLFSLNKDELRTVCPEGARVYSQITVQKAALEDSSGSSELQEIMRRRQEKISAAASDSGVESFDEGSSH

B1: inhibitory short peptide p + p-8 (peptide)
peptide: PPPPPPPPVDYEDEE
binding [1]: binds

B2: inhibitory short peptide SH3-3 (peptide)
peptide: EKVVAIYDYTKDKDDELSFMEGAII
binding [2]: binds

B3: Flag-tagged SOS1, Q07889 1-1333 (protein)
chain: MQAQQLPYEFFSEENAPKWRGLLVPALKKVQGQVHPTLESNDDALQYVEELILQLLNMLCQAQPRSASDVEERVQKSFPHPIDKWAIADAQSAIEKRKRRNPLSLPVEKIHPLLKEVLGYKIDHQVSVYIVAVLEYISADILKLVGNYVRNIRHYEITKQDIKVAMCADKVLMDMFHQDVEDINILSLTDEEPSTSGEQTYYDLVKAFMAEIRQYIRELNLIIKVFREPFVSNSKLFSANDVENIFSRIVDIHELSVKLLGHIEDTVEMTDEGSPHPLVGSCFEDLAEELAFDPYESYARDILRPGFHDRFLSQLSKPGAALYLQSIGEGFKEAVQYVLPRLLLAPVYHCLHYFELLKQLEEKSEDQEDKECLKQAITALLNVQSGMEKICSKSLAKRRLSESACRFYSQQMKGKQLAIKKMNEIQKNIDGWEGKDIGQCCNEFIMEGTLTRVGAKHERHIFLFDGLMICCKSNHGQPRLPGASNAEYRLKEKFFMRKVQINDKDDTNEYKHAFEIILKDENSVIFSAKSAEEKNNWMAALISLQYRSTLERMLDVTMLQEEKEEQMRLPSADVYRFAEPDSEENIIFEENMQPKAGIPIIKAGTVIKLIERLTYHMYADPNFVRTFLTTYRSFCKPQELLSLIIERFEIPEPEPTEADRIAIENGDQPLSAELKRFRKEYIQPVQLRVLNVCRHWVEHHFYDFERDAYLLQRMEEFIGTVRGKAMKKWVESITKIIQRKKIARDNGPGHNITFQSSPPTVEWHISRPGHIETFDLLTLHPIEIARQLTLLESDLYRAVQPSELVGSVWTKEDKEINSPNLLKMIRHTTNLTLWFEKCIVETENLEERVAVVSRIIEILQVFQELNNFNGVLEVVSAMNSSPVYRLDHTFEQIPSRQKKILEEAHELSEDHYKKYLAKLRSINPPCVPFFGIYLTNILKTEEGNPEVLKRHGKELINFSKRRKVAEITGEIQQYQNQPYCLRVESDIKRFFENLNPMGNSMEKEFTDYLFNKSLEIEPRNPKPLPRFPKKYSYPLKSPGVRPSNPRPGTMRHPTPLQQEPRKISYSRIPESETESTASAPNSPRTPLTPPPASGASSTTDVCSVFDSDHSSPFHSSNDTVFIQVTLPHGPRSASVSSISLTKGTDEVPVPPPVPPRRRPESAPAESSPSKIMSKHLDSPPAIPPRQPTSKAYSPRYSISDRTSISDPPESPPLLPPREPVRTPDVFSSSPLHLQPPPLGKKSDHGNAFFPNSPSPFTPPPPQTPSPHGTRRHLPSPPLTQEVDLHSIAGPPVPPRQSTSQHIPKLPPKTYKREHTHPSMHRDGPPLLENAHSS
binding [3]: no binding
